From the supplement of paper PMC3334620
In all, about 33,000 sequences were measured (“E-score (-0.5 to 0.5)”: median about -0.016, highest 2% from about 0.32 on). This is one part of the list.

target: T1, Stp1 (UniProt B3LFK1); assay: PBM E-score (8-mer binding enrichment) (E-score (-0.5 to 0.5)); higher = stronger / more preferred TF binding; most listed sequences are background and not binding sites; conditions: protein concentration: 200 nM; construct: GST-full length
T1 sequence: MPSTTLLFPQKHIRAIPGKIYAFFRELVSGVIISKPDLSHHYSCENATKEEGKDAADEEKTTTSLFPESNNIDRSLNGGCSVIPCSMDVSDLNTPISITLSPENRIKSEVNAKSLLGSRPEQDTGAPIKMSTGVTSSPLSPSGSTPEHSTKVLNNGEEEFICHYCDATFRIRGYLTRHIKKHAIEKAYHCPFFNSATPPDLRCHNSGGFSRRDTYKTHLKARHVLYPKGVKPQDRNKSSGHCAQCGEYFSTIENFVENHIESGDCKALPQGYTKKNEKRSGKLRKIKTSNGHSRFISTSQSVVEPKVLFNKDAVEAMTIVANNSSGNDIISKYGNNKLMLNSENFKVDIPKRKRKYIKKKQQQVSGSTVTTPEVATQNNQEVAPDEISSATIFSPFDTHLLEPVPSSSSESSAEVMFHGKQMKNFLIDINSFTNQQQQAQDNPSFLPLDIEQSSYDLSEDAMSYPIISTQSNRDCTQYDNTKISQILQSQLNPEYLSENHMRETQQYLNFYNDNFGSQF
Procedure, shortened: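 For each ungapped eight-base word taken together with its reverse complement, the Universal PBM Analysis Suite assigned an E-score. Binding data came from GST-tagged yeast transcription factors, applied at about 100-200 nM, on universal all-10-mer Agilent arrays made double-stranded by primer extension. Fluorescent anti-GST marked bound protein, and scans were normalised with masliner.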

Sequence | PBM E-score
CCTACCCC | -0.368
AAATCAGA | 0.168
ACATAAAA | 0.172
CAACCTGG | -0.101
CCCCGGAA | -0.321
CTGCCGAC | -0.181
CATGTGCG | 0.174
AAATAAAT | 0.253
AGTGGTGG | -0.0452
CCCTGTTA | -0.00414
GGCGGCAC | 0.446
GAGCTGTA | -0.164
CGTGCCAA | 0.11
CGTCACTC | -0.119
TCACGCAA | 0.215
AGGGGCTA | -0.269
ATGGACTC | -0.0735
ACCTATAC | 0.0036
ATTCAACG | 0.193
ATTGTAAA | 0.179
CTGGGTCA | -0.144
TATAGATA | -0.142
AAGCCCCC | -0.335
CTAAACGC | 0.107
GCATGGGC | -0.111

Sequence | PBM E-score
ATTTCTGA | 0.0272
TACCACCA | -0.254
CCCTCATA | -0.243
GGGGCAAC | -0.107
ATACTTAG | 0.0169
GGCCTGCA | -0.324
AGTTTTCG | 0.0503
CCCTAAAC | -0.193
CGCGAGCA | -0.204
ATAGAATG | 0.253
TGCTCGAA | -0.0187
GTTTCTGA | -0.0379
AACCAGAT | -0.141
CGGGTCTC | 0.0506
CGGACCAA | 0.0479
GGGAGTTA | -0.169
AGACTAAC | -0.119
ACCGTAAC | 0.0376
CATGCCGA | 0.188
CATTAGGC | -0.0536
ATACTCAA | 0.103
CTCCAACA | -0.0881
CATACGAC | -0.00709
AGTTCAAC | -0.137
CAACTGTG | -0.0366

Sequence | PBM E-score
AGGGGGCG | -0.0306
AGTCTACA | -0.106
CAATCCCC | -0.294
AGACCTAA | -0.234
TAATACGA | 0.0528
TCTAGAAA | 0.0528
ATTAGTGG | 0.0954
AAGTTAAG | -0.117
ACCGTTTA | 0.168
AGCGCTAA | 0.13
CTCTATAC | -0.0646
CGGACTCA | -0.19
AATAACCC | 0.0684
TAACAAGA | 0.0726
AATGTGGT | 0.0253
AAATACAG | 0.0368
GGACTCCC | -0.334
GATATGAC | 0.0218
ACGACCTA | -0.0634
ACCTTCCA | 0.0663
AGGGCTTA | -0.265
AGCGTGAG | 0.0678
AATTCGCT | 0.151
ATGCAGTG | 0.0912
AACTGTCG | 0.0925

Sequence | PBM E-score
AGCGACAC | -0.0137
CCTTCTTC | -0.0872
ACGGCTGA | 0.147
AATCCTCC | -0.17
AATCTTCG | 0.196
TGAACGCA | 0.0368
CGGTGATC | -0.121
CTATCTCC | -0.119
AGCCGACA | -0.123
TGGGCCAA | -0.0401
GAAAACAA | 0.149
GGAGATTA | -0.0966
AAGCGATG | -0.0673
ATGTATAA | -0.0152
ATGGAAGA | -0.0539
CAAGATAC | 0.0121
CAGGTGGG | -0.132
ATAAGCAT | 0.00239
CCCCAGCC | -0.336
CGTCGCCC | -0.13
AATCCCAC | -0.275
GCTCCAGA | -0.155
CGATAGGA | -0.162
ACGGACGG | 0.0736
CACAGCTA | -0.135

Sequence | PBM E-score
ATGTGGGC | -0.215
CATTACGC | -0.00938
GAAGGGTA | -0.0389
GCCATGCC | 0.324
GCATTGGA | 0.056
ATACTAAT | 0.0391
GTGGGTTA | -0.085
TCAAAGAA | -0.0561
CAGATATG | -0.0843
ATTCTAGC | 0.0362
CATAATAC | 0.051
AGAATAAT | 0.226
TCTTGGAA | 0.0702
AGGCCACC | -0.233
TAAAAGCA | 0.0501
GACCCCCC | -0.439
ATACTTCG | 0.0557
CTTCGGAA | 0.0613
CACTTAAA | 0.0992
AGCATTTC | 0.0271
AGGCTCAC | -0.14
ATGTTTGG | 0.0181
AAAGTTGA | 0.00862
CCTCTACA | -0.269
GGACGAAA | 0.101

Sequence | PBM E-score
AAGCGCCG | 0.465
CCAACAAC | -0.119
GATCTTGA | 0.0408
CAGTGTAC | -0.0498
TAACAATA | 0.0276
GTGTGAGA | 0.0629
AATCTACG | -0.0982
AATCAATG | 0.174
GGTGCTAA | 0.0579
AATTCAGG | 0.155
CGCGTGGC | 0.201
CTCACAAA | 0.109
CACAACTA | 0.112
ATGGTTGA | 0.0822
ACGGCCAC | 0.3
CGCAGGGC | 0.273
ACTGGAAT | -0.0812
GAGAGAAC | -0.0759
GCTCCTGA | 0.0243
CACAAGCG | 0.0749
AATGTTAG | -0.0471
CGGTTGCC | 0.0616
TATCTTCA | 0.046
CGGAATAG | 0.073
ACTGCGGC | 0.381

Sequence | PBM E-score
CGTAACGA | -0.11
CGTTCGCA | -0.0217
CCGGGTAG | -0.306
TTAGCCAA | -0.081
TAACAGAA | 0.195
CGCACCCC | -0.118
TAAGTGTA | 0.0418
ATCTCTCA | 0.153
GCTGGGAA | -0.223
ATTATTCA | 0.0763
TAAGGATA | 0.133
CTCCCAGC | -0.287
CCTTTATC | -0.101
GAGGCTCA | 0.00466
AAATATAG | 0.203
GCATACAC | 0.0999
AGACTACG | -0.245
CGACCCCG | 0.0189
CGCTTAAA | 0.139
CATTTTGA | 0.0378
ATAACTAC | 0.113
AGAAGAGG | -0.133
